In US20080075796A1, “Compositions and Methods for Controlling Insects” (TyraTech, Inc., priority 2003, published 2008):

Biological target: T1, tyramine receptor (TyrR) (Drosophila melanogaster, UniProt P22270)
T1 sequence (P22270 27-601): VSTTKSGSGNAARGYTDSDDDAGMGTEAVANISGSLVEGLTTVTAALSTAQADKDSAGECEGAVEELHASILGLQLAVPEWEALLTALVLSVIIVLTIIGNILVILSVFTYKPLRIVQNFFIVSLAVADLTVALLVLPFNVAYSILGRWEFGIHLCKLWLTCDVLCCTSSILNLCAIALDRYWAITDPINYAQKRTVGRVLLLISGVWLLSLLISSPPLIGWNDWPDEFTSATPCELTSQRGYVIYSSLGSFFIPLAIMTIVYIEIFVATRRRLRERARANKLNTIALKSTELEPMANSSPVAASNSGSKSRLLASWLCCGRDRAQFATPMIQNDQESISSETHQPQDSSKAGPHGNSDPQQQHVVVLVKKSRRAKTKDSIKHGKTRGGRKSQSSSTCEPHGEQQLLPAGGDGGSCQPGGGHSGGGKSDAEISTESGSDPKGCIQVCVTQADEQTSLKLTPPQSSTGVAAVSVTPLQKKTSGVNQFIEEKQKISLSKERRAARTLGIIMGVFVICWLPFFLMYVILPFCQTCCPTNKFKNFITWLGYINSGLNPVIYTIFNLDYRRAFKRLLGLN
Details: displacement of about 2 nM ^3H-tyramine

Work on NCCc1c[nH]c2ccc(O)cc12 [Serotonin (SE), Serotonin] yielded an EC50 (EC50 (concentration at which binding is inhibited by 50%)) of 23.3 µM and a Ki (Ki) of 8.95 µM.
